The values below come from the RNAGym collection of RNA variant scans (doi:10.7554/elife.90254).

The source gives no read counts; variants with many changes may rest on few reads.

To fix the notation:
B1: LINE1-full (parent)
chain: UACGUAGGUGGUUUUCCCCUGAUAGUGCUAAGGGGGCCUGGAAGUUUGGACUGGGCAGAGCUCAACACAGCGUGGCAAAGUGGCUGUGGCUAGACUGCCUCUCUGGAUUCCUCGUCACUCAGCAGGGCAUCUCUGAGAGAAAUGCC

Variants of B1 are the subject of this data set. Kind of data set: self-cleavage, relative activity (ratio to wild type); higher = more cleavage; in vitro, sequencing; the parent is a self-cleaving ribozyme.
On to UACGUAGGUGGCUUCCCCCUGAUAGUGCUAAGGGGGCCUGGAAGUUUGGACUGGGCAGAGCUCAACACAGCGUGGCAAAGUGGCUGUGGCUAAACUGCCUCUCUGGAUUCCUCGUCACUCGGCAGGGCAUCUCUGAGAGAAAUGCC, for which the self-cleavage was determined as 0.2.
Regarding UACGUAGGUGGCUUCCCCCUGGUAGUACUAAGGGGGCCUGGAAGUUUGGACUGGGCAGAGCUCAACACAGCGUGGCAAAGUGGCUGUGGCUAGACUGCCUCUCUGGAUUCCUCGUUACUCAGCAGGGCAUCUCUGAGAGAAAUGCC, the self-cleavage is 0.89.
Consider UACGUAGGUGGCUCUCCCCUGAUAGUGCUAAGGGGGCCUGGAAGUUUGGACUGGGCAGAGCUCAACACAGCGUGGCAAAGAGGCUGUGGCUAGACUGCCUCUCUGGAUUCCUCGUCACUCAGCAGGGCAUCUCUGAGAGAAAUGCC, for which the self-cleavage is 2.84.
For the variant UACGUAGGUGGCUCUCCCCUGAUAGUGCUAAGGGGGCCUGGAAGUUUGGACUGGGCAGAGCUCAACACAGCGUGGCAAAGCGGCUGUGGCUAGACUGCCUCUCUGGAUUCCUCGUCACUCAGCAGGGCAUCUCUGAGAGAAAUGCC, the self-cleavage came to 0.57.
On to UACGUAGGUGGCUUCCCCCUAAUAGUGCUAAGGGGGCCUGGAAGUUUGGACUGGGCAGAGCUCAACACAGCGUGGCAAGGUGGCUGUGGCUAGACUGCCUCUCUGGAUUACUCGUCACUCAGCAGGGCAUCUCUGAGAGAAAUGCC, for which the self-cleavage was found to be 1.04.
With UACGUAGGUGGCUUCCCCCUGAUAGUGCUAAGGGGGCCCGGAAGCUUGGACUGGGCAGAGCUCAACACGGCGUGGCAAAGUGGCUGAGGCUAGACUGUCCCUCUGGAUUCCUCGUCACUCAGCAGGGCAUCUCCGAGAGAAAUGCC, the self-cleavage amounted to 0.
As to UACGUAGGUGGCUUCCCCCUGAUAGUACUAAGGGGGCCUGGAAGUUUGGACUGGGCAGAGCUCGACACAGCGUGGCAAAGUGGCUGUGGCUAGACUGCCUCUCUGGAUUCCUCGUCACUCAGCAGGGCAUCUCUGAGAGAAAUGCC, the self-cleavage came to 0.54.
As for UACGUAGGUGGCUCUCCCCUGAUAGUGCUAAGGGGGCCUGGAAGUUUGGACCGGGCAGAGCUCAACACAGCGUGGCAAAGUGGCUGUGGCUAGACUGCCUCUCUGGAUUCCUCGUCACUCGGCAGGGCAUCUCUGAGAGAAAUGCC, the figure is 2.7.
Take UACGUAGGUGGCUCUCCCCUGAUAGUGCUAAGGGGGCCUGGAAGAUUGGACUGGGCAGAGCUCAACACAGCGUGGCAAAGUGGCUGUGGCUAGACUGCCUCUCUGGAUUCCUCGUCACUCAGCAGGGCACCUCUGAGAGAAAUGCC: the self-cleavage was found to be 0.82.
On to UACGUAGGUGGCUUACCCCUGAUAGUGCUAAGGGGGCCUGGAAGUUUGGACUGGGCAGAGCUCAACACAGCGUGGCAAAGUGGCUGCGGCUAGACUGCCUCUCUGGGUUCCUCGUCACUCAGCAGGGCAUCUCUGAGAGAAAUGCC, for which the self-cleavage amounted to 0.
As for UACGUAGGUGGCUUCCCCUUGAUAGUGCUAAGGGGGCCUGGAAGUUUGGACUGGGCAGAGCUCAACGCAGCGUGGCAAAGUGGCUGUGGCUAGUCUGCCUCUCUGGAUUUCUCGUCACUCAGCAGGGCAUAUCUGAGAGAAAUGCC, the figure is 0.11; as for UACGUAGGUGGCUUACCCCUGAUAGUGCUAAGGGGGCCUGGAGGUUUGGACUGGGCAGAGCUCAACACAGCGUGGCAAAGUGGCUGCGGCUAGACUGCCUCUCUGGAUUCCUCGUCACUCAGCAGGGCAUCUCUGAGAGAAAUGCC, 0.77.
As for UACGUAGGUGGCUUCCCCCUGAUAGUGCUAAGGGGGCCUGGAAGUUUGGACUGGGCAGAGCUCAACACAGCGUGGCAAAGUGGCUGUGGCUAGACUGUCUCUCUGGAUUCCUCGUCACUCAGCAGGGCAUCUCUGAGAGAAAUGCC, the figure is 0.77.
As for UACGUAGGUGGCUUCCCCCUGAUAGUGCUAAGGGGGCCUGGAAGUUUGGACUGGGCAGUGCUCAACACAGCGUGGCAAAGUGGCUGUGGCUAGACUGCCUCCCUGGAUUCCUCGUCACUCAGCAGGGCAUCUCUGAGAGAAAUGCC, the figure is 0.45; as for UACGUAGGUGGCUCUCCCCUGAUAGUGCUAAGGGGGCCUGGAAGUUUGGACUGGGCAGAGCUCAACACAGCGUGGCAAAGAGGCUGUGGCUAGACUGCCUCCCUGGAUUCCUCGUCACUCAGCAGGGCAUCCCUGAGAGAAAUGCC, 2.56; as for UACGUAGGUGGCUUACCCCUGAUAGUGCUAAGGGGGCCUGGAAGUUUGGACUGGGCAGAGCUCAACACAGCGUGGCUAAGUGGCUGAGGCUAGACAGCCUCUCUGGAUUCCUCGUUACUCAGCAGCGCAUCUCUGAGAGAAAUGCC, 0.04.
As for UACGUAGGUGGCUCUCCCCUGAUAGUGCUAAGGGGGCCUGGAAGUUUGGACUGGGCAGAGCUCAACACAGCGUGGCAAAGUGGCUGUGGCUAGACUGCCUCUCUGGAUUCCUCGUCACUCAGCAGGGCAUCUCCGAGAGAAAUGCC, the self-cleavage was determined as 2.83.
Next, UACGUAGGUGGCUUCCCCCUGAUAGUGCUAAGGGGGCCUGGAAGUUUGGACUGGGCAGAGCUCAACACAGCGUGGCAAAGUAGCUGUGGCUAGACUGCCUCUCUGGAUUCCUCGUCACUCAGCAGGGCAUCUCUGAGAGGAAUGCC: 1.43.
In the case of UACGUAGGUGGCUCUCCCCUGAUAGUGCUAAGGGGGCCUGGAAGUUUGGACUGGGCAGAGCUCAACACAGCGAGGCAAAGUGGCUGUGGCUAGACUGCCUCUCUGGAUUCCUCGUCACUCAGCAGGGCAUCUCUGAGAGAAAUGCC, the self-cleavage turned out to be 1.19.
Regarding UACGUAGGUGGCUUACCCCUGAUAGUGCUAAGGGGGCCUGGAAGUAUGGACUGGGCAUAGCUCAACACAGCGUGGCAAAGUGGCUGUGGCUAGACUGCCUCUCUGGAUUCCUCGUCACUCAGCAGGGCAUCUCUGAGAGAAAUGUC, the self-cleavage was 0.22.
